Measured values reported in PubChem BioAssay AID1345082 (National Center for Advancing Translational Sciences (NCATS), 2018).
Among all 94,000 compounds or so, about 4,000 (4.3%) were called active. Inconclusive means that the source gave no clear call. Such entries were picked first, then a sample of the others. The call rests on the fitted dose curve; in most records, active means well fitted inhibition curve with a large enough effect; inconclusive means small, poorly fitted or top-dose-only effect; inactive means no such curve, though single readings can be large or run the other way. A potency beside an inconclusive call is a rough fit, not a confirmed value.

Test: Cytotoxic Profiling in NIH 3T3 Cell Line of Diverse Libraries Using Quantitative High-Throughput Screening; further: nearly all actives have a fitted effect of over 55% in size
Conditions: NIH 3T3 viability, CellTiter-Glo ATP luminescence, 48-72 h; activity change, negative = cytotoxicity: at 96.7 µM (top of the series) unless noted; series mostly up to 96.7 µM
In short: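 Cytotoxicity is measured as loss of cellular ATP: NIH 3T3 cells (400/well) are exposed to compound for 48 or 72 hr at 37 °C, then CellTiter-Glo luminescence is imaged after 10 min at room temperature.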
On the % scale 0 is the no-effect control and ±100 the full control effect; potency means the concentration at half of the fitted maximal effect; tags describe the fitted curve by direction and shape.

Row | Compound | Potency | activity change, negative = cytotoxicity
1 | COc1ccc(CN2CCn3c(nn(-c4ccc(Cl)cc4)c3=O)C2)cc1 | inconclusive: 17.8 µM [inhibitor, full curve] | 
2 | COc1cccc(-c2ccc(CN3CCCC(NC(=O)C(C)C)C3)cc2)c1 (configuration not stated) | inconclusive: 56.2 µM [inhibitor, partial curve, poor fit] | 
3 | CC1=C[C@@H](CNCC(C)C)[C@H](C(C)C)C[C@H]1Cc1nc2c(C)cccc2[nH]1 | active: 39.8 µM | 
4 | Cn1ncc2c(C(=O)NC3CCCc4ccccc43)cc(-c3ccccc3C(F)(F)F)nc21 (configuration not stated) | inconclusive: 10 µM [inhibitor, full curve, poor fit] | 
5 | COC(=O)[C@@H]1Cc2ncn(C(C)C)c2CN1S(=O)(=O)c1cccc2c(N(C)C)cccc12 | inconclusive: 89.1 µM [inhibitor, single point] | 
6 | CCN1CCN(C(=O)c2ccc3c(c2)n(Cc2cccc(F)c2)c(=O)c2ccnn23)CC1 |  | inactive: -21.2%
7 | O=C(c1ccc(Oc2ccccc2)cc1)N1CCC2OCCN(c3ccccc3)C(=O)C2C1 (configuration not stated) | inconclusive: 44.7 µM [inhibitor, partial curve, poor fit] | 
8 | CC(C)(C)C(Cn1ccnc1)NC(=O)c1cc(COc2ccc3c(c2)CCCC3)on1 (configuration not stated) | active: 20 µM | 
9 | O=C(Nc1ccc(F)cc1)c1ccc2cncn2c1 | inconclusive: 35.5 µM [inhibitor, partial curve, poor fit] | 
10 | COc1ccc(-c2cc(N3CCCN(C(=O)c4ccc(Cl)cc4)CC3)n[nH]2)cc1 |  | inactive: -17.4%
11 | COCc1ccc2c(c1)c(OC(C)(C)C(=O)NCCc1cccnc1)nn2CCC(C)C | inconclusive: 56.2 µM [inhibitor, partial curve, poor fit] | 
12 | Cn1cc(-c2cnc3n[nH]c(-c4ccc5c(c4)OCO5)c3n2)cn1 | inconclusive: 8.91 µM [inhibitor, full curve, poor fit] | 
13 | Cn1cc(CC(=O)N2CCCc3ncc(C(=O)NCCc4ccccn4)cc32)c2ccccc21 | inconclusive: 20 µM [inhibitor, partial curve, poor fit] | 
14 | COc1ccccc1-c1ccc(C(=O)N2CCC(NC(=O)c3ccccc3)CC2)cc1 | inconclusive: 50.1 µM [inhibitor, partial curve, poor fit] | 
15 | O=C(c1ccccc1F)N1CCCC(Cc2nc(C3CCOCC3)no2)C1 (configuration not stated) |  | inactive: -7.1%
16 | CCS(=O)(=O)Nc1ccc(C2(C(=O)NCc3cccc(C)c3)CCC2)cc1 | inconclusive: 31.6 µM [inhibitor, partial curve] | 
17 | O=C(COc1ccc(F)cc1)N1CCC(Oc2ncccc2C(=O)N2CCCCC2)C1 (configuration not stated) | inconclusive: 70.8 µM [inhibitor, single point] | 
